Drawing on PubChem BioAssay (NCI), this text covers TGI and GI50 for one compound.

Molecules are shown by their SMILES.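 Assay format: 96-well plates, 48-hour exposure. At the GI50, growth is halved.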 A number of entries come with more than one value. Only these are listed. An entry can have further records. Values given together are repeats (runs, samples, wells, individuals or studies). Brackets tell where a record comes from. The letters are not those of the source and start again with each entry.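 At the TGI there is no net growth.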

Some test systems named below: A498 renal; BT-549 breast; CAKI-1 renal; HOP-92 NSCLC; HS 578T breast; MDA-MB-435; NCI-H460 lung; NCI-H522 lung; RPMI-8226 leukemia.
Assay in all cases: DTP human tumour cell line panel, 48 h

For the compound `CN(C)c1ccc(/C=C(\C#N)c2ccccc2)cc1`, the TGI (usually the concentration at which net growth stops) with A498 renal is 987 nM [sample A, 1 test] and > 26.3 µM [sample B, mean of 2 tests] and 25.2 µM [sample C, 1 test]; in the assay on BT-549 breast it was > 100 µM [sample A, 1 test] and 602 nM [sample B, 1 test] and 89.7 µM [sample C, 1 test]; in the assay with CAKI-1 renal it was > 100 µM [sample A, 1 test] and 3.52 µM [sample B, mean of 2 tests] and > 100 µM [sample C, 1 test]; with HOP-92 NSCLC, 8.78 µM [sample A, 1 test] and > 100 µM [sample B, mean of 2 tests] and > 100 µM [sample C, 1 test]; in the assay with HS 578T breast it was > 100 µM [sample A, 1 test] and 766 nM [sample B, mean of 2 tests] and > 100 µM [sample C, 1 test]; with MDA-MB-435, 493 nM [sample A, 1 test] and 211 nM [sample B, 1 test] and > 100 µM [sample C, 1 test]. In addition, the concentration for total growth inhibition (TGI) in the assay on NCI-H460 lung is 15.4 µM [sample A, 1 test] and 4.94 µM [sample B, mean of 2 tests] and > 100 µM [sample C, 1 test]; with NCI-H522 lung, 77.3 µM [sample A, 1 test] and 5.07 µM [sample B, 1 test]; with RPMI-8226 leukemia it was 4.51 µM [sample A, mean of 2 tests] and 69.6 µM [sample B, 1 test]. Further, in the assay with HS 578T breast, the GI50 (as a rule, the concentration giving 50% growth inhibition) is 579 nM [sample A, 1 test] and 260 nM [sample B, mean of 2 tests] and 2.78 µM [sample C, 1 test].
